The structures appear in SMILES notation. Hit rate of the full screen: of about 310,000 compounds, about 14,000 (4.5%) showed an effect of 50% or more. Effects have a minus sign here. This is one part of the list.
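Also: peak tail current of the secondary pulse compared with the same well before compound.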

In the assay the target is human ether-à-go-go-related gene (hERG) potassium channel (human, UniProt Q12809). Kind of assay: primary screen, population patch clamp on CHO cells stably expressing hERG.
human ether-à-go-go-related gene (hERG) potassium channel, sequence (Q12809 whole entry, looked up): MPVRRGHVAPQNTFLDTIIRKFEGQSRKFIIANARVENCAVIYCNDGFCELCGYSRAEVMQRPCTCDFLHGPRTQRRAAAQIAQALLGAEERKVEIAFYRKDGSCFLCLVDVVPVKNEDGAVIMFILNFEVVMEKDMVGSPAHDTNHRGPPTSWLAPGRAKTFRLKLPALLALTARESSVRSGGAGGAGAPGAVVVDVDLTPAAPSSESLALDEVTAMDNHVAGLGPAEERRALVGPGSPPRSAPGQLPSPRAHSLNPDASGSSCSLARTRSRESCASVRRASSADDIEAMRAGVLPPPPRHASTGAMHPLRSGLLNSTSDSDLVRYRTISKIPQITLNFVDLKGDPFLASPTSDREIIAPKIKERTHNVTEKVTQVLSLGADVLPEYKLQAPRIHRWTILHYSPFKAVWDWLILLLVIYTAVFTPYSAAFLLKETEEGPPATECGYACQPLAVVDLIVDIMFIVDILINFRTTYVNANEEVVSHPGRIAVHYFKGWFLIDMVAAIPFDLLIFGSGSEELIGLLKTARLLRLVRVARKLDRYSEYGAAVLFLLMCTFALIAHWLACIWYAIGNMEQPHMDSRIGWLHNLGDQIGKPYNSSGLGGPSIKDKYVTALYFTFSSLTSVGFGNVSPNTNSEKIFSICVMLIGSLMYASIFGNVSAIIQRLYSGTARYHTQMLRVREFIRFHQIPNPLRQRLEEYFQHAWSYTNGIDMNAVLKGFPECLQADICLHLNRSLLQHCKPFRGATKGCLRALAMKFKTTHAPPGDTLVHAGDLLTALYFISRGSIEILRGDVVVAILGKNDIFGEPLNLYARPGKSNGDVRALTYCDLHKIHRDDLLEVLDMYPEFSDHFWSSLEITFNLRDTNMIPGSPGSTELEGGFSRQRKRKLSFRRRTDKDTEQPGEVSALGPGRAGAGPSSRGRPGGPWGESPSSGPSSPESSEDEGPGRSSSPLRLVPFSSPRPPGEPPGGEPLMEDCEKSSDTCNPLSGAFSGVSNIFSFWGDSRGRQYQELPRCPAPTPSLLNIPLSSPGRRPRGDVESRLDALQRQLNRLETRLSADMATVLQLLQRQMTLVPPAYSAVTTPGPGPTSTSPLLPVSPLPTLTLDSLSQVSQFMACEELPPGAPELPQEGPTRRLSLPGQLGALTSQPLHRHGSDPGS
For `C/C(=C/c1ccccc1)C(=O)N1CCC(C)CC1`, the “hERG current change (%, negative = inhibition) at 10uM” value is on record as -2.42%.

`CCc1cc2cc3c(cc2nc1SCC(=O)Nc1c[nH]c(=O)[nH]c1=O)OCO3`: the “hERG current change (%, negative = inhibition) at 10uM” value is -0.909%. With `COc1ccc(Cc2nnc(NC(=O)Nc3ccccc3)s2)cc1OC`, the “hERG current change (%, negative = inhibition) at 10uM” value is given as 15.3%. With `CC(C)CN1CCN(CCCc2ccccc2)C(CCO)C1` (stereo not shown) the figure was -35.5%; with `CCN1CCN(C(=S)NCCc2ccccc2)CC1.O=C(O)C(=O)O`, -15.1%. For `COc1cc(C2c3sc(=O)[nH]c3SC3C(=O)N(c4ccc(C)cc4)C(=O)C32)ccc1O` (stereo not shown), the “hERG current change (%, negative = inhibition) at 10uM” value is recorded as 1.86%. As for `O=C(c1cc2ccccc2o1)N1CC=C(c2ccccc2)CC1`, the “hERG current change (%, negative = inhibition) at 10uM” value was found to be 10.4%. With `Cc1ccccc1Oc1nc2c(c(=O)n(C)c(=O)n2C)n1C` the figure was 7.08%; with `COc1cccc(-c2nc(NCC3CCCO3)c3ccccc3n2)c1O` (stereo not shown), -21.2%. As for `CN1C(=S)SC(C)(C)C1NO` (stereo not shown), the “hERG current change (%, negative = inhibition) at 10uM” value was determined as 2.67%. With `Cc1ccc(S(=O)(=O)N2CCOCC2)cc1C(=O)OCC(=O)c1ccc[nH]1` the figure was -4.46%. Turning to `Cc1ccc(-c2nc(-c3ccccc3)no2)c(Cl)c1`, the “hERG current change (%, negative = inhibition) at 10uM” value worked out at 2.36%. `Cc1cccc2nc(CSc3nc4ccc([N+](=O)[O-])cc4[nH]3)cn12`: the “hERG current change (%, negative = inhibition) at 10uM” value is listed as -4.2%. As to `CCCCn1c(N)c(N(CCOC)C(=O)Cn2c(=O)oc3ccccc32)c(=O)[nH]c1=O`, the “hERG current change (%, negative = inhibition) at 10uM” value is recorded as 6.43%. With `c1coc(CNc2nc3ccccc3n2CCN2CCOCC2)c1` the figure was -33.2%. Turning to `COCCNC(=O)c1cccc(OC2CCN(Cc3ccc(C(C)C)cc3)CC2)c1`, the “hERG current change (%, negative = inhibition) at 10uM” value is -70.7%.

As to `CCCC(O)(c1ccc(Cl)cc1)C(CN1CCOCC1)c1ccc(Cl)cc1.Cl` (stereo not shown), the “hERG current change (%, negative = inhibition) at 10uM” value came out at 0.717%. Consider `CCN(c1ccccc1)S(=O)(=O)c1ccc(Oc2ccc(-n3ccnc3)cc2)nc1`, for which the “hERG current change (%, negative = inhibition) at 10uM” value was -77.4%.

Regarding `COc1cccc(C(=O)Nc2cc3c(cc2C(C)=O)OCCO3)c1`, the “hERG current change (%, negative = inhibition) at 10uM” value is listed as -8.73%. In the case of `CCOC(=O)c1sc(NC(=O)c2cc3n(n2)C(C(F)(F)F)CC(c2ccccc2)N3)c(C(=O)OCC)c1C` (stereo not shown), the “hERG current change (%, negative = inhibition) at 10uM” value is 21.2%. With `Cc1ccc(S(=O)(=O)N2C(=O)CCC2C(=O)NCc2ccco2)cc1` (stereo not shown) the figure was 9.17%; with `Cc1ccc(/C(N)=N/OC(=O)Oc2ccccc2)cc1`, 6.28%; with `Cc1cc(N2CCOCC2)nc2ccc(NC(=O)CCC(=O)N3CCC(C)CC3)cc12`, -2.73%.

For `COc1ccc(CNc2cc(C)ccc2C)c(OC)c1OC`, the “hERG current change (%, negative = inhibition) at 10uM” value is reported as -15.1%. On to `CN(C)Cc1c(C(=O)N/N=C/c2ccc(OCc3ccc(F)cc3)cc2)nnn1-c1nonc1N`, for which the “hERG current change (%, negative = inhibition) at 10uM” value is listed as 18.9%.

Take `CCOC(=O)C1=C(N)OC2=C(C(=O)CC(C)(C)C2)C1c1ccccc1OCC#N` (stereo not shown): the “hERG current change (%, negative = inhibition) at 10uM” value is 2.57%. Regarding `CCOC(=O)[C@H]1[C@H]2COc3ccc(Br)cc3[C@@H]2N2C(=O)c3ccc(C)cc3NC(=O)[C@@]12C`, the “hERG current change (%, negative = inhibition) at 10uM” value was 14.3%.

As for `O=S(=O)(Nc1ccccn1)c1cnc(Cl)c(Br)c1`, the “hERG current change (%, negative = inhibition) at 10uM” value is listed as -2.25%. With `COc1ccc(N2C(=O)N3[C@H](c4cccc(C)c4)[C@@H]4C(=O)N(Cc5ccccc5)C(=O)[C@@H]4[C@]3(Cc3ccccc3)C2=O)cc1` the figure was 5.36%. Take `CCn1c(SCC(=O)N/N=C/c2ccc(O)c(OC)c2)nc2ccccc21`: the “hERG current change (%, negative = inhibition) at 10uM” value came to 2.36%.

Consider `COC(=O)c1cc(C)sc1NC(=O)CCCC(=O)O`, for which the “hERG current change (%, negative = inhibition) at 10uM” value amounted to 27.3%. Turning to `N#Cc1c(NC(=O)CSc2ncccn2)oc(-c2ccccc2)c1-c1ccccc1`, the “hERG current change (%, negative = inhibition) at 10uM” value was 25.2%. Regarding `NC(=O)CN1CCN(CCN2C(=O)c3cccc4cccc(c34)C2=O)CC1`, the “hERG current change (%, negative = inhibition) at 10uM” value is listed as -5.61%. Consider `Cc1cccc(C2Nc3ccccc3C(=O)N2c2ccccc2)n1` (stereo not shown), for which the “hERG current change (%, negative = inhibition) at 10uM” value amounted to 4.41%. On to `CCOc1cc(C(=O)NCCc2ccc(S(N)(=O)=O)cc2)cc(OCC)c1OCC`, for which the “hERG current change (%, negative = inhibition) at 10uM” value was 17.9%. Regarding `COC(=O)c1scc(C)c1N1C(=O)c2ccccc2C1=O`, the “hERG current change (%, negative = inhibition) at 10uM” value turned out to be 3.5%. For the compound `COCC(=O)Nc1cc(C)cn(Cc2c(F)cccc2Cl)c1=O`, the “hERG current change (%, negative = inhibition) at 10uM” value is recorded as 13.1%. Next, `Cc1ccccc1S(=O)(=O)N1[C@@H](c2ccc(F)cc2)C(C(=O)O)=CC[C@H]1c1ccc(Cl)cc1`: 0.353%; `CCOC(=O)C1(Cc2cccc(F)c2)CCN(C2CCOCC2)CC1`: -63.5%; `COc1ccc(/C=C/C2=NN(C)C(=O)CC2)cc1`: 13.4%. `CCCc1ccc2oc(C(=O)N3CCC[C@H]3CO)c(C)c2c1`: the “hERG current change (%, negative = inhibition) at 10uM” value is recorded as -2.59%. Take `C=CCn1c(C)cc(C(=O)COC(=O)[C@@H](NC(=O)c2ccccc2Cl)C(C)C)c1C`: the “hERG current change (%, negative = inhibition) at 10uM” value was -7.65%. Next, `CCc1ccc(C2CC(c3ccc(Cl)cc3)n3nc(N)nc3N2)cc1` (stereo not shown): -10.3%.
